{"source": "PubChem BioAssay AID1671193", "about": "(National Center for Advancing Translational Sciences (NCATS), 2021)", "note": "Among all 150,000 compounds or so, about 180 (0.12%) were called active. Inconclusive means that the source gave no clear call. Such entries were picked first, then a sample of the others. The call rests on the fitted dose curve; in most records, active means well fitted cell-killing curve with a large enough effect; inconclusive means small, poorly fitted or top-dose-only effect, or effect the other way; inactive means flat fitted curve, though single readings scatter. Where the call is inconclusive, the potency comes from a doubtful curve fit. Potency means the concentration at half of the fitted maximal effect; tags describe the fitted curve by direction and shape."}
{"experiment": "GF-AFC viability counterscreen for inhibitors of alpha-synuclein gene (SNCA) expression; further: nearly all actives have a fitted effect of over 30% in size;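 on activity change, negative = cytotoxicity: 0% = DMSO-treated cells and -100% = medium-only wells without cells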", "details": "HEK-293-SNCA-luc viability, GF-AFC fluorescence, 24 h; activity change, negative = cytotoxicity: at 57.1 µM (top of the series) unless noted", "procedure,_shortened": "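HEK-293-SNCA-luc cells (1500/well) plated 24 h, then exposed 24 h to a dilution series; GF-AFC added 30 min at 37C, fluorescence 405/540 nm; normalised to medium-only and DMSO wells, Hill fit.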"}
{"smiles": "CCCCN1C(=O)C(CC(=O)N(C)C)Sc2ncccc21", "note": "(configuration not stated)", "Potency": "inactive"}
{"smiles": "COc1ccc(-c2cc3c(=O)n(CCNC(=O)c4ccc(OC)nc4)ccn3n2)cc1", "Potency": "inactive"}
{"smiles": "CN(C)c1cccc(NC(=O)c2ccc3c(c2)NC(C)(COc2ccccc2)CO3)c1", "note": "(configuration not stated)", "Potency": "inactive"}
{"smiles": "Cc1ccc2c(c1)c(=O)c1ccccc1n2CCCC(=O)Nc1ccc(Cl)cc1C", "Potency": "inconclusive: 3.98 µM [rising, partial curve, poor fit]"}
{"smiles": "O=C(C1CCCN1c1nccc(Nc2ccccc2F)n1)N1CCN(Cc2ccccc2)CC1", "note": "(configuration not stated)", "activity change, negative = cytotoxicity": "inactive: 4.57% [at 12.5 µM]"}
{"smiles": "NC1(c2ccc(-c3nc4ccn5c(=O)[nH]nc5c4cc3-c3ccccc3)cc2)CCC1", "Potency": "inconclusive: 10.6 µM [cytotoxic, partial curve, poor fit]"}
{"smiles": "CC(C)c1cc(C(=O)N2CCn3nc(C(=O)Nc4ccccc4)cc3C2)n[nH]1", "Potency": "inactive"}
{"smiles": "CCN(CCCNC(=O)c1cc(Nc2ccc(OC)cc2)nc2ccccc12)c1cccc(C)c1", "Potency": "inconclusive: 20 µM [rising, single point]"}
{"smiles": "COc1cccc(-c2nc3c([nH]2)CN(c2cc(C4CC4)ncn2)CC3)c1", "Potency": "inconclusive: 14.1 µM [cytotoxic, partial curve]"}
{"smiles": "Cc1cc(C)cc(-c2ccc(CN3CCCC3C(=O)N3CCOCC3)cc2)c1", "note": "(configuration not stated)", "Potency": "inactive"}
{"smiles": "COCCNC(=O)C1CC(=O)N(C2CN(S(=O)(=O)Cc3ccccc3)C2)C1", "note": "(configuration not stated)", "Potency": "inactive"}
{"smiles": "CCCNC(=O)N(C1CCOCC1)C1CCN(C(=O)c2cc(Cl)ccc2OC)CC1", "Potency": "inconclusive: 1 µM [cytotoxic, full curve, poor fit]"}
{"smiles": "O=C(CN1C(=O)c2cccc3cccc1c23)Nc1cccc(F)c1", "Potency": "inconclusive: 39.8 µM [rising, single point]"}
{"smiles": "COc1ccc(-c2nnc(C[C@@H]3C[C@@H](C(C)C)[C@H](CNc4ccccn4)C=C3C)o2)cc1", "Potency": "inconclusive: 22.4 µM [cytotoxic, partial curve]"}
{"smiles": "CCN1CCN(Cc2ccc(NC(=O)c3ccc(C)c(Oc4ncnc5[nH]c(C)cc45)c3)cc2C(F)(F)F)CC1", "Potency": "inconclusive: 29.9 µM [cytotoxic, partial curve, poor fit]"}
{"smiles": "COc1cccc(C(=O)N2CC(Oc3ccccc3-c3nc(-c4ccccc4)no3)C2)c1", "Potency": "inconclusive: 28.2 µM [cytotoxic, partial curve, poor fit]"}
{"smiles": "COc1cccc(N2CCN(C(=O)c3nc(-c4ccc(Cl)cc4)n4c3CCCCC4)CC2)c1", "Potency": "inconclusive: 25.1 µM [cytotoxic, single point]"}
{"smiles": "COc1ccc(CCNC(=O)CN2C(=O)COc3ccc(S(=O)(=O)N4CCCCCC4)cc32)cc1OC", "Potency": "inconclusive: 2 µM [cytotoxic, full curve]"}
{"smiles": "COCCn1c(=O)c(-c2cccs2)nc2cnc(Oc3ccccc3)nc21", "Potency": "inconclusive: 17.8 µM [rising, partial curve, poor fit]"}
{"smiles": "N#Cc1cccnc1-c1ccc(C(=O)N2CCC(NC(=O)Cc3cccc(Cl)c3)CC2)cc1", "activity change, negative = cytotoxicity": "inactive: -11.3% [at 12.5 µM]"}
{"smiles": "CCC(CC)C(=O)NC[C@@H]1C=C(C)[C@H](Cc2nc3c(C)cccc3[nH]2)C[C@H]1C(C)C", "Potency": "active: 14.1 µM"}
{"smiles": "Cc1ccc(-c2nnc3ccccc3c2C(=O)Nc2cccc(C(F)(F)F)c2)cc1", "Potency": "inconclusive: 1 µM [rising, partial curve, poor fit]"}
{"smiles": "CC(C)OC(=O)c1c(NC(=O)c2cc3nc(-c4ccccc4)cc(C(F)(F)F)n3n2)sc2c1CCCC2", "Potency": "inconclusive: 15.8 µM [cytotoxic, partial curve]"}
{"smiles": "O=C(c1nccc2ccccc12)N1CCN(C(=O)N2CC3CC(C2)[C@H]2CCCC(=O)N2C3)CC1", "note": "(some centres not stated)", "Potency": "inconclusive: 0.708 µM [rising, partial curve, poor fit]"}
{"smiles": "NC(=O)c1noc([C@H](CCCC2CCCCC2)CC(=O)NO)n1", "Potency": "inconclusive: 29.9 µM [cytotoxic, single point]", "activity change, negative = cytotoxicity": "inconclusive: -43.4% [cytotoxic]"}
{"smiles": "Cc1cc(Nc2cccc(C(F)(F)F)c2)nc2ccc(NC(=O)c3cncc(Br)c3)cc12", "Potency": "inconclusive: 25.1 µM [cytotoxic, single point]"}
{"smiles": "COc1ccc(NC(=O)CSc2n[nH]c(-c3ccccc3)n2)cc1Cl", "Potency": "inactive"}
{"smiles": "COCC(=O)NC1CCCN(Cc2ccc(-c3cncnc3)cc2)C1", "note": "(configuration not stated)", "activity change, negative = cytotoxicity": "inactive: -3.49% [at 12.5 µM]"}
{"smiles": "O=c1c(-c2ccccc2)nc2cnc(N3CCNCC3)nc2n1Cc1ccc(F)cc1", "Potency": "inconclusive: 25.1 µM [rising, partial curve, poor fit]"}
{"smiles": "c1ccc(Nc2cc3c(cn2)CN(Cc2ccn[nH]2)CCN3)cc1", "Potency": "inconclusive: 8.91 µM [cytotoxic, full curve, poor fit]"}
{"smiles": "COc1cccc(C(=O)N(C)C(C)c2cccs2)c1", "note": "(configuration not stated)", "Potency": "inactive"}
